The text below walks through data of paper PMC4615246 (Nucleus, 2015).

The target of one assay is T1, LacI-CFP-Nup153 (human, UniProt P49790 1-1475).
T1 sequence: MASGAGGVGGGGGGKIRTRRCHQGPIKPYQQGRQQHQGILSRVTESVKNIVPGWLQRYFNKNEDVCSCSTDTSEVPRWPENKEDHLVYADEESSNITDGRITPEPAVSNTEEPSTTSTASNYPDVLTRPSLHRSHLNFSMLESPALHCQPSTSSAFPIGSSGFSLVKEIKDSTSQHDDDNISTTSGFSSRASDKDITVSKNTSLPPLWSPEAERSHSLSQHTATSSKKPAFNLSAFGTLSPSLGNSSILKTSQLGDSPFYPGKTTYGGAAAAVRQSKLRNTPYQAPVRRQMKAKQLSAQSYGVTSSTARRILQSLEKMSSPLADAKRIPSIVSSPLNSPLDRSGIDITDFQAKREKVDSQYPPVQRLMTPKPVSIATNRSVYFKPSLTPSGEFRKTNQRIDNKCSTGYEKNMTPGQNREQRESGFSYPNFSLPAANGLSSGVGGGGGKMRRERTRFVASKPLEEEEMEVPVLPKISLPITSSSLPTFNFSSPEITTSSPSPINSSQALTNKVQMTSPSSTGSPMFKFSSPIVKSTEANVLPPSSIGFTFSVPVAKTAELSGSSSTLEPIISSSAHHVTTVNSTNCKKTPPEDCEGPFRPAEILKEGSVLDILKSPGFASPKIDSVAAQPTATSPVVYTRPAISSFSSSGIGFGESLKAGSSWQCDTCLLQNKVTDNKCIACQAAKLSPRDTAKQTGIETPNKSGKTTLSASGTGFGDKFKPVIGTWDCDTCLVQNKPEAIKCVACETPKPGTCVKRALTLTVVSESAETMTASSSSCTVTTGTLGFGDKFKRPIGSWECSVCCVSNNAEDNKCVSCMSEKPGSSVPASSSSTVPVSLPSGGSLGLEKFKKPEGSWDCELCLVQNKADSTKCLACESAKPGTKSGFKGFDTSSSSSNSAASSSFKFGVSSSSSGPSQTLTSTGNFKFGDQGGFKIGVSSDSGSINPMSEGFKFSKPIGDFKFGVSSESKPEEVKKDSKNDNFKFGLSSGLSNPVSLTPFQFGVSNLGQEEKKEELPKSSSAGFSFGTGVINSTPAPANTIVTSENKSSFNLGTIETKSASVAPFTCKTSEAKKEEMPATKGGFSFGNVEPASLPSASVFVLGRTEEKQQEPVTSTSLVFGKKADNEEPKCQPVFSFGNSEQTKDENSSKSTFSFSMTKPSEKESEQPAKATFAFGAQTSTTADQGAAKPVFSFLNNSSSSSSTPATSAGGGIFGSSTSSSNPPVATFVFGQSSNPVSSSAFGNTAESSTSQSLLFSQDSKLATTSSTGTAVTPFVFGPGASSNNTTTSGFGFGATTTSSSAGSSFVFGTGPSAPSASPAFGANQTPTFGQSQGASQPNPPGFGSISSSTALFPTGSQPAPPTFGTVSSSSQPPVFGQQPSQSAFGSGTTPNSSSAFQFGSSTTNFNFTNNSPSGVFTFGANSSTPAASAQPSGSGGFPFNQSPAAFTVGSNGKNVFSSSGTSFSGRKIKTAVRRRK
The assay can be described thus: LacI/LacO array recruitment in cells.

A further assay deals with T2, LacI-CFP-Nup107 (human, UniProt P57740 1-925).
T2 sequence: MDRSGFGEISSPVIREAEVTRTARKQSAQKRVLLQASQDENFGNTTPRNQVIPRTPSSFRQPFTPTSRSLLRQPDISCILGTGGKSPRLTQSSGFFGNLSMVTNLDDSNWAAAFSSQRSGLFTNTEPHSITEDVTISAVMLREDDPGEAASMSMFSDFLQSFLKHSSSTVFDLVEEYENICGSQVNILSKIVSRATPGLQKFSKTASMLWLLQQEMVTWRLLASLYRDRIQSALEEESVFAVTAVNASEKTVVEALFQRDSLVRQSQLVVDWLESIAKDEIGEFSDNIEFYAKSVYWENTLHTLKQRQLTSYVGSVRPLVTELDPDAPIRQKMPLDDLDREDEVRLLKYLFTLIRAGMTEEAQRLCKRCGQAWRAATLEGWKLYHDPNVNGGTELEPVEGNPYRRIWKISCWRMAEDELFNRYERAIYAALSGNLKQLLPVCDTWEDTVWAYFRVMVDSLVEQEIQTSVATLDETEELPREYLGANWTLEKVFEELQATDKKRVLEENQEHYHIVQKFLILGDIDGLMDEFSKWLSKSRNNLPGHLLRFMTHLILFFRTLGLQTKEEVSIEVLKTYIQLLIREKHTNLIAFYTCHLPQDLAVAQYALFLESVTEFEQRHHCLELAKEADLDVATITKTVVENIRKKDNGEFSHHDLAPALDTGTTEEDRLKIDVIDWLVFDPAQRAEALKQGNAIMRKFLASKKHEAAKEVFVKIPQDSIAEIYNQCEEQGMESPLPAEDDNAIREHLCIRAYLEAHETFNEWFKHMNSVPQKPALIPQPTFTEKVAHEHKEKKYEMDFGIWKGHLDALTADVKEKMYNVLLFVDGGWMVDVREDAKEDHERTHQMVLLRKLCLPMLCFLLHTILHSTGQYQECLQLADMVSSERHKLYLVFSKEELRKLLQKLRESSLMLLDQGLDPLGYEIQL
The assay can be described thus: LacI/LacO array recruitment in cells.

B1: Pom121 (endogenous) (natural protein)
chain: MSPAAAAAGAGERRRPIASVRDGRGRGCGGPARAVLLGLSLVGLLLYLVPAAAALAWLTVGATAAWWGLSREPRGSRPLSSFVRKARHRRPLSSFVRKARHRRTLFASPLAKSTANGNLLEPRTLLEGPDPAELLLMGSYLGKPGPPQPAAAPEGQDLRDRPGRRPPARPAPRSPPPRSPPPRSPPPSPPTHRAHHVYPSLPTPLLRPSRRPSPRDCGTLPNRFVITPRRRYPIHQAQYSCLGVLPTVCWNGYHKKAVLSPRNSR[about 450 residues not shown]KQSFLFGTQNTSPSSPAAPAASSAPPMFKPIFTAPPKSEKEGPTPPGPSVTATAPSSSSLPTTTSTTAPTFQPVFSSMGPPASVPLPAPFFKQTTTPATAPTTTAPLFTGLASATSAVAPITSASPSTDSASKPAFGFGINSVSSSSVSTTTSTATAASQPFLFGAPQASAASFTPAMGSIFQFGKPPALPTTTTVTTFSQSLHTAVPTATSSSAADFSGFGSTLATSAPATSSQPTLTFSNTSTPTFNIPFGSSAKSPLPSYPGANPQPAFGAAEGQPPGAAKPALAPSFGSSFTFGNSAAPAAAPTPAPPSMIKVVPAYVPTPIHPIFGGATHSAFGLKATASAFGAPASSQPAFGGSTAVFFGAATSSGFGATTQTASSGSSSSVFGSTTPSPFTFGGSAAPAGSGSFGINVATPGSSTTTGAFSFGAGQSGSTATSTPFAGGLGQNALGTTGQSTPFAFNVSSTTESKPVFGGTATPTFGLNTPAPGVGTSGSSLSFGASSAPAQGFVGVAPFGSAALSFSIGAGSKTPGARQRLQARRQHTRKK
Turning to B1, the results for the “percent of transfected cells showing colocalization” value with LacI-CFP-Nup153 and with LacI-CFP-Nup107 were 31% and 26%, respectively.
